Test results: PubChem BioAssay (NCI)
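In this assay, cells in 96-well plates receive the compound at five concentrations for 48 hours. Endpoints are linearly interpolated between the surrounding concentrations. GI50 = concentration required for 50% inhibition of growth. TGI denotes the concentration required for complete inhibition of growth.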

tested on: NCI-H322M lung; test: NCI tumour cell line growth inhibition, 48 h

Structure (SMILES) | TGI [µM] | GI50 [µM]
COc1cccc2cc(C(C)=O)c(=O)oc12 | > 100 | 
Cc1c(C(N)=O)sc2c1c(=O)n(Cc1ccccc1)c1nnc(-c3ccc(Br)cc3)n21 | 21.8 | 1.38
Nc1c2c(nc3ccccc13)-c1ccccc1NCCC2 | > 100 | 
COc1ccccc1NS(=O)(=O)c1ccc2oc(SC(C)C)nc2c1 | 79.2 | 28.1
Cc1nc2sccn2c1C(=O)NC(=O)Nc1ccc(Cl)cc1 | > 100 | 
C=C(C)C(=O)O[C@@H]1C/C(C)=C\[C@H](OC(C)=O)C[C@](C)(O)/C=C2/OC(=O)C(COC(C)=O)=C21 | 21.9 | 
COc1c2c(cc3c1C1(O)Cc4ccc5c(c4C[N+]1(C)CC3)OCO5)OCO2 (centres undefined) | > 100 | 
CCCN(CCC)c1c([N+](=O)[O-])cc(C(=O)N(CCO)CCO)cc1[N+](=O)[O-] | > 100 | 
Cc1ccc(NCCN(C)C)c2c(=O)c3ccccc3sc12 | 4.75 | 2.03
C#CCN(C(=O)C(F)(F)F)c1ccc(C(=O)c2ccc(N(CC#C)C(=O)C(F)(F)F)cc2)cc1 | > 100 | 
O=C(C[P+](c1ccccc1)(c1ccccc1)c1ccccc1)C[P+](c1ccccc1)(c1ccccc1)c1ccccc1 | 1.7 | 0.549
N#Cc1c(N)nc(NCc2ccccc2)c(C#N)c1-c1ccc(Cl)cc1Cl | > 100 | > 62.8
CC1=C[C@H]2C[C@H](C)[C@H]3CC[C@H](C)[C@]4(C1)C(=O)C(O)=C(C)C(=O)[C@@]324 | 88.1 | 26.7
O=C(C/C(CCC(=O)N(Cc1ccccc1)Cc1ccccc1)=N/Nc1ccc([N+](=O)[O-])cc1[N+](=O)[O-])c1ccccc1 | > 100 | 
COc1ccc(C2C3CCCC(C3=O)C(c3ccc(OC)cc3)N2N=O)cc1 (centres undefined) | > 100 | 
O=C(c1ccccc1)n1c(-c2ccccc2)cs/c1=N\S(=O)(=O)c1ccc(N2N=C3c4ccccc4CC3C2c2cccs2)cc1 (centres undefined) | 74.1 | 22.3
CN1CCN(Cc2ccc3c(NNC(=O)c4ccccc4)nc4cc(F)ccc4n23)CC1 | > 100 | 0.345
COc1cc(NC=C2C(=O)OC(C)(C)OC2=O)c(OC)c(C)c1OC | > 100 | 
COc1ccc(/C=C\c2cc(OC)c(OC)c(OC)c2)cc1OCC(=O)Nc1ccc2nc(C)sc2c1 | > 100 | 6.73
O=C(Nc1sccc1S(=O)(=O)c1ccccc1)c1ccccc1 | > 100 | 
Clc1ccccc1C(Nc1ncccn1)Nc1ncccn1 | > 100 | 
O=C(Nc1cc(Oc2cc(F)c(NC(=O)C3(C(=O)Nc4ccc(F)cc4)CC3)cc2F)ccn1)C1CC1 | 8.52 | 2.85

Structure (SMILES) | TGI [µM] | GI50 [µM]
CCCCCCCCCCCCCC(=O)CSCCNC(=O)CCNC(=O)[C@@H](O)C(C)(C)COP(=O)(O)OP(=O)(O)OCC1OC(n2cnc3c(N)ncnc32)C(O)C1OP(=O)(O)O (some centres undefined) | 42.2 | 
CCN(CC)CCCNc1[nH]ncc2c(C)c3nc4ccc(OC)cc4c3cc12 | 2.79 | 
CC(C)(C)OC(=O)CN1CCN(CC(=O)N2CCN(C(=O)OCc3ccccc3)CC2)CCN(CC(=O)OC(C)(C)C)CCN(CC(=O)N2CCN(C(=O)OCc3ccccc3)CC2)CC1 | 29.8 | 
COc1ccc2c(c1)c(=O)c1c(NCCN(C)C)ccc3nnn2c31 | 9.13 | 
COC1C2c3cc4c(cc3CC(C#N)(c3ccccc32)N1C(=O)c1ccccc1)OCO4 (centres undefined) | > 100 | 
CCOC(=O)C(CNc1ccc(O)cc1)NC(=O)c1ccccc1 (centres undefined) | > 100 | 
NNC(=O)c1ccc(OCc2nc3ccccc3[nH]2)cc1 | > 100 | 
N#Cc1ccc2cc3c(cc2c1)OCO3 | > 100 | 
OC12c3ccccc3C3CCC4(OCCO4)C3C1c1ccccc12 (centres undefined) | > 100 | 
COc1ccc(N(/C=C/C(=O)C(F)(F)F)CC(=O)c2ccc(Cl)cc2)cc1 | 47.5 | 16
COc1cc(/C=C/c2cc(/C=C/c3ccc(O)c(OC)c3)n(C(=O)Nc3ccc(Cl)cc3)n2)ccc1O | 7.71 | 0.765
CC1CN=C(c2cccc(-c3nc(-c4cccc(C5=NCC(C)N5)c4)nc(N(C)C)n3)c2)N1 (centres undefined) | 3.08 | 
COc1ccc(Nc2nc3cc(N)cc(N)c3nc2-c2ccccc2)cc1OC | > 100 | 25.3
CSCCCNC(=O)c1csc(-c2csc(CCNC(=O)CNC(=O)CNC(=O)OC(C)(C)C)n2)n1 | > 100 | 
Cc1ccc(S(=O)(=O)N/N=C2/CC3CCC4CC2CC34)cc1 (centres undefined) | > 100 | 
O=c1[nH]c(=O)n(C2OC(CO)C(O)C2O)cc1OCC(F)(F)F (centres undefined) | > 100 | 
Cc1cc(Nc2cc(N3CCN(C)CC3)nc(Sc3ccc(NC(=O)C4CC4)cc3)n2)n[nH]1 | > 10 | > 10
Cc1cccc(C)c1Nc1nc(C)c(C(=O)CC(=O)C(=O)Nc2c(C(C)C)cccc2C(C)C)s1 | > 100 | 
CC(C)/C(=N\[N+](C)(C)C)c1ccccc1 | > 100 | 
O=C(/C=C/C12c3ccccc3C(c3ccccc31)C1C(=O)NC(=O)C12)c1ccc(Cl)cc1 (centres undefined) | 2.73 | 1.42
CC(C)(C)OC(=O)c1cccnc1/C=N/O | > 100 | 
Nc1nc(N)c2cc(Sc3cccc(C(F)(F)F)c3)ccc2n1 | 15.9 | 
